Measurements as given in the supplement of paper PMC4604168 (melanoma cell lines).
The other results are listed elsewhere or left out. Single values are uncertain, as repeats are few or missing.

What was measured:
Assay in all cases: cell count relative to DMSO control; melanoma cells; higher = more viable cells
Conditions in all cases: library dose: standard library concentration; 72 h
SkMel28 = tested on: SkMel28
SkMel2 = tested on: SkMel2
SkMel30 = tested on: SkMel30
SkMel5 = tested on: SkMel5
UACC257 = tested on: UACC257
UACC62 = tested on: UACC62
WM115 = tested on: WM115
WM1716 = tested on: WM1716
WM3526 = tested on: WM3526
WM1745 = tested on: WM1745
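Note: cells treated in 1,536-well plates, then fixed and DAPI-stained, with nuclei counted from automated high-throughput microscope images.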

Row | Compound | cell count (SkMel28) [%] | cell count (SkMel2) [%] | cell count (SkMel30) [%] | cell count (SkMel5) [%] | cell count (UACC257) [%] | cell count (UACC62) [%] | cell count (WM115) [%] | cell count (WM1716) [%] | cell count (WM3526) [%] | cell count (WM1745) [%]
1 | Cc1ccc(Nc2nccc(N(C)c3ccc4c(C)n(C)nc4c3)n2)cc1S(N)(=O)=O [Pazopanib] + Oc1nc(-c2ccc(C(F)(F)F)cc2)nc2c1CSCC2 [XAV939] (first compound 2 µM, partner dose 10 µM) | 61 | 84.8 | 84.6 | 50.9 | 76.6 | 77.6 | 75.3 | 48.8 | 88 | 
2 | Cc1ccc(Nc2nccc(N(C)c3ccc4c(C)n(C)nc4c3)n2)cc1S(N)(=O)=O [Pazopanib] + O=C(O)c1ccc2c(c1)nc(Nc1cccc(Cl)c1)c1ccncc12 [CX4945] (first compound 2 µM, partner dose 2 µM) | 55.5 | 70.9 | 57.9 | 53.9 | 101 | 62.6 | 76.5 | 92 | 55.6 | 89.3
3 | Cc1ccc(Nc2nccc(N(C)c3ccc4c(C)n(C)nc4c3)n2)cc1S(N)(=O)=O [Pazopanib] + OCc1c[nH]c2ccccc12 [Indole-3-carbinol] (first compound 2 µM, partner dose 4 µM) | 112 | 102 | 90.6 | 119 | 100 | 88.6 | 101 | 97.4 | 88.1 | 99.5
4 | CC1(C)CCC(c2ccc(Cl)cc2)=C(CN2CCN(c3ccc(C(=O)NS(=O)(=O)c4ccc(N[C@H](CCN5CCOCC5)CSc5ccccc5)c(S(=O)(=O)C(F)(F)F)c4)cc3)CC2)C1 + CC(C)CCN1c2nc(Nc3cc(F)c(O)c(F)c3)ncc2N(C)C(=O)C1C [BID1870] (first compound 2 µM, partner dose 1 µM) | 58.7 | 56.8 | 37 | 73.2 | 29.6 | 42.4 | 72.2 | 69.5 | 47.8 | 
5 | O=C(/C=C/c1cccnc1)NCCCCC1CCN(C(=O)c2ccccc2)CC1 + CC(=O)O[C@@]12CO[C@@H]1C[C@H](O)[C@@]1(C)C(=O)[C@H](O)C3=C(C)[C@@H](OC(=O)[C@H](O)[C@@H](NC(=O)OC(C)(C)C)c4ccccc4)C[C@@](O)([C@@H](OC(=O)c4ccccc4)[C@H]21)C3(C)C [Docetaxel] (first compound 0.05 µM, partner dose 0.0005 µM) | 16 | 18.5 | 44.4 | 34.6 | 65.6 | 45.4 | 35.2 | 38.3 | 37.9 | 34.8
6 | Cc1ccc(Nc2nccc(N(C)c3ccc4c(C)n(C)nc4c3)n2)cc1S(N)(=O)=O [Pazopanib] + O=C(O)C(=O)Nc1sc2c(c1C(=O)O)CCNC2 [TCS401] (first compound 2 µM, partner dose 8.33333 µM) | 95.2 | 106 | 112 | 73.4 | 74.8 | 81.5 | 83.9 | 68.5 | 81.7 | 
7 | Cc1ccc(Nc2nccc(N(C)c3ccc4c(C)n(C)nc4c3)n2)cc1S(N)(=O)=O [Pazopanib] + CCN(CC)CCCCNc1ncc2cc(-c3cc(OC)cc(OC)c3)c(NC(=O)NC(C)(C)C)nc2n1 [PD173074] (first compound 2 µM, partner dose 0.5 µM) | 86.7 | 91.3 | 102 | 62.8 | 87.6 | 77 | 111 | 67.7 | 77 | 
8 | O=C(/C=C/c1cccnc1)NCCCCC1CCN(C(=O)c2ccccc2)CC1 + O=C(CCCCCCC(=O)Nc1ccccc1)NO [vorinostat] (first compound 0.05 µM, partner dose 0.4 µM) | 51.6 | 64.2 | 85 | 81.2 | 68.4 | 67.7 | 67.4 | 83.4 | 76 | 73.9
9 | O=C(/C=C/c1cccnc1)NCCCCC1CCN(C(=O)c2ccccc2)CC1 + COC(=O)c1sccc1S(=O)(=O)Nc1ccc(Nc2ccccc2)cc1OC [GSK0660] (first compound 0.05 µM, partner dose 5 µM) | 75.8 | 15.3 | 111 | 101 | 80.1 | 107 | 94.4 | 78.1 | 102 | 
10 | Cc1ccc(Nc2nccc(N(C)c3ccc4c(C)n(C)nc4c3)n2)cc1S(N)(=O)=O [Pazopanib] + COc1ccc(-c2ccc3c(N4CCOCC4)nc(N4C[C@@H](C)O[C@@H](C)C4)nc3n2)cc1CO [KU0063794] (first compound 2 µM, partner dose 0.1 µM) | 73.6 | 72.4 | 84.9 | 76 | 85.9 | 99.3 | 87.9 | 80.4 | 79.4 | 
11 | Cc1ccc(Nc2nccc(N(C)c3ccc4c(C)n(C)nc4c3)n2)cc1S(N)(=O)=O [Pazopanib] + Cn1cncc1[C@@](N)(c1ccc(Cl)cc1)c1ccc2c(c1)c(-c1cccc(Cl)c1)cc(=O)n2C [tipifarnib] (first compound 2 µM, partner dose 0.05 µM) | 45 | 83 | 91 | 48.6 | 85.7 | 61.5 | 60.4 | 60.8 | 63.1 | 121
12 | CC1(C)CCC(c2ccc(Cl)cc2)=C(CN2CCN(c3ccc(C(=O)NS(=O)(=O)c4ccc(N[C@H](CCN5CCOCC5)CSc5ccccc5)c(S(=O)(=O)C(F)(F)F)c4)cc3)CC2)C1 + Cn1cc(/C=C2\C(=O)Nc3cccnc32)c2ccccc21 [GW441756] (first compound 2 µM, partner dose 2 µM) | 77.6 | 97.4 | 72.5 | 76 | 48.1 | 58.9 | 69 | 73 | 112 | 
13 | CC1(C)CCC(c2ccc(Cl)cc2)=C(CN2CCN(c3ccc(C(=O)NS(=O)(=O)c4ccc(N[C@H](CCN5CCOCC5)CSc5ccccc5)c(S(=O)(=O)C(F)(F)F)c4)cc3)CC2)C1 + C[C@]1(c2nc3c(C(N)=O)cccc3[nH]2)CCCN1 [Veliparib] (first compound 2 µM, partner dose 7 µM) | 63.4 | 71.6 | 70.7 | 78.3 | 41.4 | 54.9 | 55.6 | 58.9 | 78.3 | 1.72
14 | Cc1ccc(Nc2nccc(N(C)c3ccc4c(C)n(C)nc4c3)n2)cc1S(N)(=O)=O [Pazopanib] + CCc1ccc(CCOc2ccc(CC3SC(=O)NC3=O)cc2)nc1 [pioglitazone] (first compound 2 µM, partner dose 10 µM) | 66.1 | 112 | 85.6 | 93 | 83.3 | 95.7 | 108 | 77.8 | 87.9 | 
15 | O=C(/C=C/c1cccnc1)NCCCCC1CCN(C(=O)c2ccccc2)CC1 + CS(=O)(=O)CCNCc1ccc(-c2ccc3ncnc(Nc4ccc(OCc5cccc(F)c5)c(Cl)c4)c3c2)o1 [lapatinib] (first compound 0.05 µM, partner dose 4 µM) | 70.8 | 14.9 | 80.3 | 62.7 | 103 | 63.3 | 75.4 | 60.2 | 66.2 | 81.3
16 | CC1(C)CCC(c2ccc(Cl)cc2)=C(CN2CCN(c3ccc(C(=O)NS(=O)(=O)c4ccc(N[C@H](CCN5CCOCC5)CSc5ccccc5)c(S(=O)(=O)C(F)(F)F)c4)cc3)CC2)C1 + COc1cc(N2CCC(N3CCN(C)CC3)CC2)ccc1Nc1ncc(Cl)c(Nc2ccccc2S(=O)(=O)C(C)C)n1 [NVP-TAE684] (first compound 2 µM, partner dose 0.4 µM) | 58.5 | 51.4 | 85.1 | 55.8 | 20.8 | 64.8 | 60.7 | 50.4 | 59.8 | 
17 | CC1(C)CCC(c2ccc(Cl)cc2)=C(CN2CCN(c3ccc(C(=O)NS(=O)(=O)c4ccc(N[C@H](CCN5CCOCC5)CSc5ccccc5)c(S(=O)(=O)C(F)(F)F)c4)cc3)CC2)C1 + CCCCCCCCCCCC1=C(O)C(=O)C=C(O)C1=O [Embelin] (first compound 2 µM, partner dose 6 µM) | 71.3 | 64.1 | 74.9 | 65.5 | 22 | 51.4 | 66.3 | 60 | 77.1 | 
18 | O=C(/C=C/c1cccnc1)NCCCCC1CCN(C(=O)c2ccccc2)CC1 + CCCCCCCCCCCC1=C(O)C(=O)C=C(O)C1=O [Embelin] (first compound 0.05 µM, partner dose 6 µM) | 78.1 | 55.9 | 117 | 121 | 89.9 | 92.6 | 83.7 | 97.8 | 123 | 
19 | Cc1ccc(Nc2nccc(N(C)c3ccc4c(C)n(C)nc4c3)n2)cc1S(N)(=O)=O [Pazopanib] + Cc1cc([N+](=O)[O-])ccc1NS(=O)(=O)c1cc(Cl)ccc1Cl [FH535] (first compound 2 µM, partner dose 5 µM) | 52.9 | 71.3 | 75.9 | 47.3 | 55.8 | 58.6 | 74.9 | 48.9 | 57.4 | 
20 | CC1(C)CCC(c2ccc(Cl)cc2)=C(CN2CCN(c3ccc(C(=O)NS(=O)(=O)c4ccc(N[C@H](CCN5CCOCC5)CSc5ccccc5)c(S(=O)(=O)C(F)(F)F)c4)cc3)CC2)C1 + CNC(=O)c1cc(Oc2ccc(NC(=O)Nc3ccc(Cl)c(C(F)(F)F)c3)cc2)ccn1 [sorafenib] (first compound 2 µM, partner dose 2 µM) | 59.7 | 67.1 | 56.7 | 70.8 | 32.9 | 80.2 | 62.1 | 73.7 | 38.4 | 3.94
21 | O=C(/C=C/c1cccnc1)NCCCCC1CCN(C(=O)c2ccccc2)CC1 + O=C(Nc1ccccc1)c1cc([N+](=O)[O-])ccc1Cl [GW9662] (first compound 0.05 µM, partner dose 10 µM) | 50.1 | 24.7 | 104 | 83.2 | 83.3 | 68.9 | 78 | 93.7 | 92.9 | 
